Consider 83 variants from the RNAGym collection of RNA variant scans (doi:10.1073/pnas.2313332121).

B1: TPR 5TU (parent)
chain: GGAUCUUCUCGAUCUAACAAAAAAGACAAAUCUGCCACAAAGCUUGAGAGCAUCUUCGGAUGCAGAGGCGGCAGCCUUCGGUGGCGCGAUAGCGCCAACGUUCUCAACUAUGACACGCAAAACGCGUGCUCCGUUGAAUGGAGUUUAUCAUG

This sample is rich in variants without activity. Bounds are passed on as bounds.

The series covers variants of B1. Kind of series: polymerase ribozyme fitness, log enrichment relative to wild type (log ratio); higher = more active; in vitro selection for triplet polymerase activity. An outline of the steps: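 A single round of triplicate in vitro selection, including frozen incubation at −7 °C, was applied to PCR-built, transcribed mutant libraries of each subunit of a heterodimeric triplet polymerase ribozyme. Illumina sequencing of input and output libraries retained genotypes with ≥10 input reads and ≥1 read per output. Fitness is the base-2 logarithm of genotype enrichment divided by wild-type enrichment, from inverse-variance-weighted replicate averages.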
For the variant A41G G88U C131G, the “polymerase ribozyme fitness (log ratio)” value was at most -4.2. The same measure for G42A A47G C54G G94C C103A: at most -4.2; for A41C C43A A64U C72U A91U C105A A107U: at most -4.2.

Regarding G42C G81C A120G, the “polymerase ribozyme fitness (log ratio)” value was at most -4.2. In the case of C43G C57U A60G A64G G83A it was at most -4.2. The same measure for C43U A64U C76A G84A C125G: at most -4.2. In the case of A41U G58A G59A G88A it was at most -4.2; in that of G42U U44G A60G G71A G86A A106U U134G U135C, at most -4.2; in that of A41U G59U A60C C72U C87A A138U, at most -4.2. For G42A C54U G117A, the “polymerase ribozyme fitness (log ratio)” value was at most -4.2. In the case of G42U U45A U56A G83A A121U it was at most -4.2; in that of G42U G70U A89G U90G U104A A120C U144A, at most -4.2; in that of A41C G46U A47C C93U A107G A115U G143A, at most -4.2.

Consider A41G U44A U61C C75U A142C, for which the “polymerase ribozyme fitness (log ratio)” value is at most -4.2. In the case of G42A A98G A142U it was at most -4.2; in that of G42C C54G A91U G124A C131G, at most -4.2; in that of A41C C63G G92U, -0.619. The same measure for A40U U55G C95U C105G C116G: -3.94; for A41U G50U A64U C118G A150C: at most -4.2; for A41C A91G: -2.85. In the case of C43U G59A G92A C95A it was at most -4.2; in that of C43A U78G G86U, at most -4.2; in that of A41C C51A U61G G67U C76U C99A, at most -4.2. Regarding G42C C43U A91U C93G, the “polymerase ribozyme fitness (log ratio)” value is at most -4.2. On to A41C U53A U56A A66C C79G G84U, for which the “polymerase ribozyme fitness (log ratio)” value is at most -4.2. In the case of A41C G42A A52C U56A G94A C96U A110C it was at most -4.2. Consider G42U U44A C54G G83U U139G U144A, for which the “polymerase ribozyme fitness (log ratio)” value was at most -4.2.

A41C C75G C87U: the “polymerase ribozyme fitness (log ratio)” value was at most -4.2. In the case of A41C C43G C51A C99A A137C A147C it was at most -4.2. With A41C U55A C85G G86C C103G G143A, the “polymerase ribozyme fitness (log ratio)” value was at most -4.2. Take G42U G88U G92C C129A G140C: the “polymerase ribozyme fitness (log ratio)” value was at most -4.2. Regarding A41U G42C U44A A60U C69U A91C C96U U134G, the “polymerase ribozyme fitness (log ratio)” value is at most -4.2. The same measure for A40U C72G C76A: at most -4.2. Take G42U U55A A97G: the “polymerase ribozyme fitness (log ratio)” value was at most -4.2. In the case of A40U G80A C96A C99A U109A C118U U127G it was at most -4.2; in that of A41C G70A G94C C105G A110G, at most -4.2; in that of A41G G50C U53G G67U G86C G128U C129U U146G C149U, at most -4.2. For the variant A41G C76A U77G G112A C116U A142C, the “polymerase ribozyme fitness (log ratio)” value is at most -4.2. Consider A41U C76U C96G C105G U134G, for which the “polymerase ribozyme fitness (log ratio)” value is at most -4.2. For the variant G42U G86U A97C, the “polymerase ribozyme fitness (log ratio)” value is at most -4.2. For the variant C43A C54G G59C C63U C96U G124U C125G, the “polymerase ribozyme fitness (log ratio)” value is at most -4.2. Consider A41U C72U G94A C99G, for which the “polymerase ribozyme fitness (log ratio)” value was at most -4.2. The same measure for A41C A89U G92A U102G U148C: at most -4.2; for U44A A47C U82C C87A U102G C116A: at most -4.2; for A41C C69A: -2.53. Take G42A G59U U145G U151A: the “polymerase ribozyme fitness (log ratio)” value was at most -4.2. Turning to G42C G50U G88C A107U A113C G141C A147G, the “polymerase ribozyme fitness (log ratio)” value is at most -4.2.

G42U C54G C79U G83U U134A A138U: the “polymerase ribozyme fitness (log ratio)” value was at most -4.2. As for A41C G80U C93A C95U G100C A122C A142G, the “polymerase ribozyme fitness (log ratio)” value is at most -4.2. Consider G42A A49C A66C, for which the “polymerase ribozyme fitness (log ratio)” value is at most -4.2. In the case of A41U G83U A150U it was -1.02; in that of G42U A106C, -4.17; in that of G42C U61A U90G C132A, at most -4.2.

Take G42C C51U C87A: the “polymerase ribozyme fitness (log ratio)” value is at most -4.2. In the case of G42C U44A A49C G126C C131A A142G A147U it was at most -4.2; in that of G42C C95A, at most -4.2; in that of C43A A60G C95U C114G, at most -4.2. With A40U U55A G59A C79U U82G G83A G128A U139G G143A, the “polymerase ribozyme fitness (log ratio)” value was at most -4.2. In the case of A41C G65A A66U U144A it was at most -4.2; in that of C43U G68U G88U U90G, at most -4.2; in that of G42A G46C U55A U82G A89U C95A A98U U111A U139G, at most -4.2. As for G42A C85U, the “polymerase ribozyme fitness (log ratio)” value is at most -4.2. In the case of A40U C76A C79A C114U G143U U146C U148A, the “polymerase ribozyme fitness (log ratio)” value is at most -4.2.

As for A40U G88A C93U U134G U139G, the “polymerase ribozyme fitness (log ratio)” value was at most -4.2.

On to G42A A60C C63A, for which the “polymerase ribozyme fitness (log ratio)” value was at most -4.2. Take C43U G84U A113U: the “polymerase ribozyme fitness (log ratio)” value was at most -4.2. In the case of A40U G86A it was -0.914. As to C43U C69A U82A C99G, the “polymerase ribozyme fitness (log ratio)” value was at most -4.2.

Consider A41C A107C G133A U144G, for which the “polymerase ribozyme fitness (log ratio)” value is at most -4.2.

As for G42A C93U, the “polymerase ribozyme fitness (log ratio)” value was at most -4.2.

With G42A G83A, the “polymerase ribozyme fitness (log ratio)” value is at most -4.2. The same measure for G42C U55A U61A C75A A106G G133C: at most -4.2.

For G42U A91U C103G C116G, the “polymerase ribozyme fitness (log ratio)” value is at most -4.2. In the case of A41C U44A G126U G133C G141C it was at most -4.2; in that of A41U A52C A66C A98G C103G U139A, at most -4.2.

Turning to A41U A120C C125A A142C, the “polymerase ribozyme fitness (log ratio)” value was -4.12.

In the case of A41C C93G G94A U148G, the “polymerase ribozyme fitness (log ratio)” value is at most -4.2. The same measure for A41C C75G U90G C95G: at most -4.2; for G42A C57G G92U U102G C114U A121C: at most -4.2. In the case of A41U C103G G128U it was at most -4.2; in that of A41U C72G U90G C99G G112U C118U, at most -4.2. Turning to A41C U53G G88A, the “polymerase ribozyme fitness (log ratio)” value is at most -4.2. The same measure for G42U C43U C57U U61A G84A C105A G143A: at most -4.2.
